Screen size: about 48,000 compounds; about 550 (1.1%) were called active. The inconclusive results got no clear call from the source; some entries with a clear call stand among them for comparison. No stated cut-off is given here; in the data, active means potency below about 15 µM; inconclusive means mostly about 16 µM to 33 µM; inactive means weaker than that. No potency is given beside an inconclusive call; the fits are too rough.
Target: Lysosomal acid glucosylceramidase (Homo sapiens) (UniProt P04062)
Chain of UniProt P04062 (P04062 whole entry, looked up): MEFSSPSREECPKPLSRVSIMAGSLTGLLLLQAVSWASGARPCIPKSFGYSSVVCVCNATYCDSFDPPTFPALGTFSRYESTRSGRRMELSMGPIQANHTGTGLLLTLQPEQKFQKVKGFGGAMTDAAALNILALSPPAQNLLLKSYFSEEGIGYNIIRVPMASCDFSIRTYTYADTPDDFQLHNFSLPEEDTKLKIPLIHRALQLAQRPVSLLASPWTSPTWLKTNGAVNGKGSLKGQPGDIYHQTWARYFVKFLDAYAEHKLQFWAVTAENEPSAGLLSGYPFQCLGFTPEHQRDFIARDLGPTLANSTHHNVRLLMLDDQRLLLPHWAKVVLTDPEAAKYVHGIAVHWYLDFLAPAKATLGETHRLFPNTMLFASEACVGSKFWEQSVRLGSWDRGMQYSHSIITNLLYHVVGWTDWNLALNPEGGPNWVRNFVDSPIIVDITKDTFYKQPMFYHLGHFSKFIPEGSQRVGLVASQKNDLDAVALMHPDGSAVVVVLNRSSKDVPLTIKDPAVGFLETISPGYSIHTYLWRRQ
Experiment: Glucocerebrosidase;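 further: the screen sought inhibitors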
Conditions: purified enzyme, resorufin glucoside fluorescence (screen aimed at inhibitors), 20 min
Summary of the method: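 Compounds titrated against 0.2 nM normal enzyme, 30 uM resorufin beta-D-glucopyranoside substrate, citrate/phosphate buffer with taurocholate and tween-20, pH 5.9. Reaction ran 20 min at room temperature; fluorescence (Ex 548/Em 600) gave AC50.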
Potency means the concentration at half of the fitted maximal effect.

| SMILES | Potency |
| --- | --- |
| COc1cccc(C(=O)Nc2c(F)c(F)c(F)c(F)c2F)c1 | inconclusive [decreasing] |
| CC(C)CCNC(=O)CN(C(=O)CCC(=O)Nc1ccccn1)c1ccc2c(c1)OCO2 | inconclusive [decreasing] |
| COc1cc2c(=O)n(CC3CCCO3)c(=O)n(CC(=O)Nc3cccc(Cl)c3)c2cc1OC (stereo not given) | inactive: > 76.9 µM |
| Cc1ccc2cc(C#N)c(NCc3ccco3)nc2c1 | active: 11.5 µM |
| CCc1ccc2[nH]c(=O)c(CN(CCN(C)C)C(=O)Nc3ccccc3OC)cc2c1 | inconclusive [decreasing] |
| c1ccn2c(SCc3cn4ccsc4n3)nnc2c1 | inconclusive [increasing] |
| COc1ccc2cc(S(=O)(=O)N3CCCCC3)ccc2c1S(=O)(=O)N1CCCCC1 | inconclusive [decreasing] |
| CCNC(=O)NCCc1c[nH]c2ccc(Cl)cc12 | inconclusive [decreasing] |
| CC(=O)c1c(C)nc2cc(Cl)ccc2c1N | inconclusive [decreasing] |
| Cc1ccc(S(=O)(=O)NCCN=C(CN2CCCC2)NS(=O)(=O)c2ccc(C)cc2)cc1 | inconclusive [decreasing] |
| Cc1nc(SCC(=O)Nc2cc(C)on2)c2c3c(sc2n1)CCCC3 | active: 15.3 µM |
| Nc1nc(CN2CCN(c3ccccc3)CC2)nc(N2CCCc3ccccc32)n1 | inconclusive [decreasing] |
| CC1=C(C(=O)OCC2CCCO2)C(c2ccc(C)o2)C2=C(CC(c3ccc(F)cc3)CC2=O)N1 (stereo not given) | inconclusive [decreasing] |
| C=CCc1ccccc1OCC(O)CN1CCN(Cc2ccc3c(c2)OCO3)CC1 (stereo not given) | inconclusive [decreasing] |
| Cn1c(=O)[nH]c(=O)c2c1nc(SCCN1CCOCC1)n2Cc1ccccc1 | active: 8.99 µM |
| CCOc1ccc(C2C(C#N)=C(N)SC(N)=C2C#N)c(OCC)c1 | inactive: > 76.9 µM |
| CC1CCN(C(=O)CSc2nnc(-c3cc4ccccc4cc3O)n2Cc2ccco2)CC1 | inconclusive [decreasing] |
| O=C(CSc1nc(NS(=O)(=O)c2ccccc2)cc(=O)[nH]1)Nc1ccc(F)cc1 | inconclusive [decreasing] |
| Cc1nn(C(C)(C)C)c(OC(=O)c2ccc3c(c2)OCO3)c1S(=O)(=O)c1ccccc1 | inconclusive [decreasing] |
| Nc1ccc2oc(-c3cccc4ccccc34)nc2c1 | inconclusive [increasing] |
| O=C(NCc1ccco1)C(c1ccncc1)N(CCC1=CCCCC1)C(=O)Cn1nnc2ccccc21 (stereo not given) | inconclusive [decreasing] |
| COCCn1nnnc1C(c1cc2cc(C)ccc2[nH]c1=O)N1CCN(C2CCCCC2)CC1 (stereo not given) | inactive: > 76.9 µM |
| COc1ccc(CCC(=O)Nc2ccc(-c3noc(-c4ccc(OC)c(OC)c4)n3)cc2)cc1 | inconclusive [decreasing] |
| CCc1nnc(NC(=O)CCC(=O)N2CCN(CCOc3ccc(C)cc3)CC2)s1 | inconclusive [decreasing] |
| CCCCC(CC)C(=O)Nc1ccccc1C(=O)NC(C)C (stereo not given) | inconclusive [decreasing] |

| SMILES | Potency |
| --- | --- |
| CCn1c(=O)c(=O)[nH]c2cc(C(=O)Nc3ccc(S(=O)(=O)N4CCCC4)cc3)ccc21 | active: 5.15 µM |
| Nc1nc(-c2ccc3c(c2)OCCO3)cs1 | inconclusive [decreasing] |
| Cc1cc(C(=O)Nc2sc3c(c2C#N)CCC(C(C)(C)C)C3)no1 (stereo not given) | inactive: > 76.9 µM |
| COc1ccc(CCNc2nc(N3CCCCC3)nc(N3CCCCC3)n2)cc1OC | inconclusive [decreasing] |
| OC1(c2ccccc2F)CCN(Cc2nnnn2CCc2ccccc2)CC1 | inconclusive [decreasing] |
| CCOC(=O)N(C)c1ccc(C(O)(C(F)(F)F)C(F)(F)F)cc1 | inconclusive [decreasing] |
| OC(COc1ccc2cc(Br)ccc2c1)CN1CCN(c2ccccn2)CC1 (stereo not given) | inconclusive [decreasing] |
| CNCCCN1c2ccccc2CCc2ccccc21 | inconclusive [decreasing] |
| COC(=O)c1ccc(CNC(=O)CSc2nc3sc(C)c(C)c3c(=O)n2C)o1 | inactive: > 76.9 µM |
| CCOC(=O)c1c(C(=O)OCC)c(C)n(N2C(=O)CSC2=S)c1C | inconclusive [decreasing] |
| CCCCn1nnnc1SCC(=O)Nc1sc2c(c1C#N)CCCC2 | inconclusive [decreasing] |
| O=C(C1CC1)N1CCc2cc(Br)cc(S(=O)(=O)N3CCN(c4ccccn4)CC3)c21 | inactive: > 76.9 µM |
| O=C(CSc1nnc(Cc2cccs2)n1-c1ccccc1)Nc1ccc2c(c1)OCCO2 | inconclusive [decreasing] |
| Cc1noc(C)c1CSc1cc(C)c2ccccc2n1 | inactive: > 76.9 µM |
| CCOC(=O)c1cc2c(=O)n3cccc(C)c3nc2n(Cc2ccco2)c1=NC(=O)c1cccnc1 | inactive: > 76.9 µM |
| O=C(NC1CCCCCCC1)C1CCN(S(=O)(=O)N2CCC3(CC2)OCCO3)CC1 | active: 10.7 µM |
| Cc1ccc(C)c(Cn2c(CO)nc3ccccc32)c1 | inactive: > 76.9 µM |
| CCCOc1cccc(NC(=O)c2c(-c3ccccc3)noc2C)c1 | inconclusive [decreasing] |
| CC1=C(C(=O)Nc2ccccc2)C(c2ccco2)C(C#N)=C(SCC(=O)Nc2cccc(C)c2C)N1 (stereo not given) | active: 8.55 µM |
| Cc1ccc(Cl)cc1N1CCN(Cc2nnnn2C2CCCCC2)CC1 | inconclusive [decreasing] |
| O=C(O)COc1ccccc1C1C2C(=O)N(c3ccc(F)cc3)C(=O)C2ON1c1ccccc1 (stereo not given) | inactive: > 76.9 µM |
| CCN1CCN(c2nc3ccccc3nc2C(C#N)C(=O)OC2CCCCC2)CC1 (stereo not given) | inconclusive [decreasing] |
| OC(CN1CCOCC1)C12CC3CC(CC(C3)C1)C2 (stereo not given) | inconclusive [decreasing] |
| Cc1ccc(C(=O)c2coc3ccc(O)c(CN4CCN(C)CC4)c23)cc1 | inactive |
| COc1cc(/C=C(/C#N)c2ccc(F)cc2)ccc1OCc1ccc(C(=O)O)o1 | inactive: > 76.9 µM |

| SMILES | Potency |
| --- | --- |
| Cc1cc(N2CCC(C(=O)Nc3ccc(F)cc3)CC2)nc(-c2ccccc2)n1 | inconclusive [decreasing] |
| CCCCCOC(=O)c1[nH]c2c(c1C)C(=O)C(C(=O)OC)C(C)C2 (stereo not given) | inconclusive [increasing] |
| COc1ccc(OC)c(NC(=O)c2ccc(NS(=O)(=O)c3c(C)noc3C)cc2)c1 | inconclusive [decreasing] |
| CCOc1cc(C2C(C(=O)OC)=CN(C3CCCC3)C=C2C(=O)OC)cc(Br)c1O | active: 6.06 µM |
| CC1(C)CC(=O)C2=C(C1)OC(N)=C(C#N)C2c1cccc(OC(=O)c2ccco2)c1 (stereo not given) | inconclusive [decreasing] |
| COc1ccc(Cl)cc1NC(=O)CN(c1ccccc1)S(=O)(=O)N(C)C | inconclusive [decreasing] |
| CN(Cc1ccccc1)S(=O)(=O)c1ccc(NS(C)(=O)=O)cc1 | inconclusive [decreasing] |
| COc1cc(OC)cc(C(=O)NCCN2CCOCC2)c1 | inconclusive [decreasing] |
| CC(C)N1CCC2(CC1)N=C(c1ccc3c(c1)OCO3)CC(c1cc(Cl)ccc1O)N2 (stereo not given) | inconclusive [decreasing] |
| COc1cccc(-n2nnc3c(=O)n(Cc4ccccc4F)cnc32)c1 | inactive: > 76.9 µM |
| O=C(NCc1ccco1)C(c1ccccc1F)N(Cc1cccnc1)C(=O)Cn1nnc2ccccc21 (stereo not given) | inconclusive [decreasing] |
| COc1cccc(-n2c(SCC(=O)NCCC3=CCCCC3)nc3n[nH]c(C)c3c2=N)c1 | inconclusive [decreasing] |
| Cn1c(-c2ccc3nc(N)sc3c2)nc2cc(N)ccc21 | inconclusive [decreasing] |
| Clc1ccc(-c2nn3cnnc3s2)c(Cl)c1 | inactive: > 76.9 µM |
| O=c1c2c3c(sc2n(CCN2CCCC2)c(=O)n1Cc1ccco1)CCCCC3 | inconclusive [decreasing] |
| Cn1c(=O)c2c(nc(CN3CCN(c4ccccc4F)CC3)n2CCCc2ccccc2)n(C)c1=O | inactive: > 76.9 µM |
| CC(C)C1O/C(=N/C(=O)Nc2ccc(Cl)c(Cl)c2)NC1=O (stereo not given) | inconclusive [decreasing] |
| Cc1ccc(-c2cnc(N)n2C)cc1C | inconclusive [decreasing] |
| COC(=O)CNC(=O)C1CCN(c2nc(C)cc(C)n2)CC1 | inactive: > 76.9 µM |
| CCOc1cc(S(=O)(=O)NCc2cccs2)ccc1Cl | inconclusive [decreasing] |
| N=c1n(CCO)c2ccccc2n1CCOc1ccccc1 | active: 6.02 µM |
| O=C(Nc1cc(C(F)(F)F)ccc1N1CCOCC1)c1ccc(Br)o1 | inconclusive [increasing] |
| COc1ccc2cc3c(N)c(C(=O)N4CCCC4)sc3nc2c1 | inactive: > 76.9 µM |
| Cc1cc(OCC(=O)NCCCN2CCOCC2)cc(C)c1Cl | inconclusive [decreasing] |
| O=S(=O)(c1ccc(Cl)cc1)N1CCSC1c1ccco1 (stereo not given) | inconclusive [decreasing] |
